± gives the standard deviation of the averaged measurements. Some of the results follow.
tested on: PfAP2-I AP2 domain 3 (GST-tagged); test: gcPBM binding intensity (ln(normalized median fluorescence intensity)); higher = stronger DNA binding
Procedure, shortened: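 Binding intensity values are the highest Masliner-normalised natural-log median intensity among replicate spots of either probe orientation. The binding step lasted 1 h in 1× PBS with 1% milk, 0.2 mg/ml BSA, 0.5% salmon testes DNA and 0.03% Triton X-100, using GST-tagged P. falciparum DNA-binding domains expressed in E. coli on an Agilent 4 × 180k array of primer-extended double-stranded 36-bp intergenic genomic probes plus negative controls. Alexa488 anti-GST antibody and a 488 nm scan detected bound protein.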

Sequence | gcPBM binding intensity (ln)
AAAAAAAATGATAATATACACACTTATGGGAGAGCG [CACACA_site2516] | 7.59 ± 0.5
AGAAATAAGAAATATACACACATATAAATATAAATA [CACACA_site7342] | 7.49 ± 0.67
AGAATATGTTAAAAAAGTACATACTCTTTATATACG [XGTACX_site79] | 7.65 ± 0.45
TAAAAAAAAACATATACACACAAAAACGTACACATA [CACACA_site1354] | 7.98 ± 0.38
TTTTTTTCTCACAATCGTACATAAATACATATATAT [XGTACX_site3150] | 8.12 ± 0.54
TATATTTTTTAAACCACACACAATATAGAGTAGAAT [CACACA_site613] | 8.03 ± 0.57
TAATGTACATAAACCGCACACATATAAAAAAATAAA [CACACA_site2851] | 8.28 ± 0.092
AGGGGAAATAAAATATAAATTATCATATATATATAT [XGTACX_negctrl_site366] | 9.25 ± 0.31
CGTATATGACAAAAGCGTACGCATCAGCAGAAAAAT [XGTACX_site6248] | 8.3 ± 0.75
ATATATATATATATATGTACTGAATAAAGAACAAAA [XGTACX_site5400] | 9.37 ± 0.4
ATAAGGAAGGGATGCACACAAAAGGGTACATAAGAA [CACACA_site4006] | 8.36 ± 0.52
TTTGAATCCTTATATACACACATTATAAAATATTAT [CACACA_site6406] | 7.93 ± 0.39
TATTTGTAAATCGATACACACATATAGATTAATATA [CACACA_site6237] | 7.44 ± 0.35
TTATATTATACATACACACCCATATAATATGTTTTT [CACACA_site4636] | 8.01 ± 0.59
AGCTACACACCACAATGTACATAAATATATATGTGA [XGTACX_site1483] | 8.11 ± 0.39
TCTTATGAATATCCCCGTACACATATATTTCTTATA [XGTACX_site6877] | 8.24 ± 0.54
TTGTTTTTGTTCTTGGGTACTTAAATTATAAATGAT [XGTACX_site113] | 8.07 ± 0.45
TATTGTATATACTATACACACACATACATACATACA [CACACA_site8172] | 8.89 ± 0.59
AGAATATTTAATTCAACACACATACATATTTATTAA [CACACA_site5318] | 7.5 ± 0.45

Sequence | gcPBM binding intensity (ln)
GGATAATATATTAGAACACACATATAGATGTAAAAA [CACACA_site6229] | 7.76 ± 0.73
TACTTTATATAAAGATCAAAAAATAAATAATTATAA [TGCATGCA_negctrl_site446] | 7.42 ± 0.67
GAAGCCCTATGAAAAGTGCGGTTCATGAACAAAGAA [GTGCAC_site9828] | 9.21 ± 1
CAAATATACATATGTAGTACATGTTGTAGATAATTT [XGTACX_site2790] | 8.01 ± 0.5
ATATATTTATATAAATGTACATACAGCACATTTATA [XGTACX_site4725] | 8.28 ± 0.085
TATATATCATATGATACATGCAACAAAATGCATAAT [TGCATGCA_site205] | 8.17 ± 0.83
TACTTACCAAAATACACACACACACTAGATATATAA [CACACA_site5096] | 7.92 ± 0.39
ATGTATATTACTCATTGTACTTATATTTTCTTATTA [XGTACX_site8897] | 7.87 ± 0.56
GTATTTATAAATTATAGTACTTTGCGTATCATATAT [XGTACX_site7358] | 7.9 ± 0.3
ATTTTATATCTGGATAGTACTTTAATATTTCAAATG [XGTACX_site7304] | 7.86 ± 0.36
GGATATTCATTAACCACACACACAAAAAAAATAAAA [CACACA_site3800] | 7.96 ± 0.3
ATGGATTATACGTGCACACATATATACAAATAAATA [CACACA_site640] | 11.19 ± 0.035
ACCATTTGTAGGTAAACACACATTATTATTAATATC [CACACA_site2635] | 7.83 ± 0.52
TAAAATGCAATCTGAACACACATATTTTTTTAATAT [CACACA_site6922] | 7.39 ± 0.54
TACATCATACGAACAGTGCATATTATTATTGTTCTG | 9.12 ± 0.057
AAAAATAATTATTCGTGTACAAAAAAAAAAATATAA [XGTACX_site439] | 7.88 ± 0.6
ATGCAAATGTGCATCACACACACTAATGGGTATGTA [CACACA_site2893] | 8.55 ± 0.45
GGAATATATATACATACACACATATATATATATATA [CACACA_site1666] | 9.26 ± 0.43
ATTTTTTATGTTAATGCATGCTCATGTGTATTTCAT [TGCATGCA_site751] | 8.16 ± 0.86

Sequence | gcPBM binding intensity (ln)
AAAGTAATAATGATTTGTACATATATATATATATAT [XGTACX_site8821] | 9.04 ± 0.63
AAATATAACATCATCACACACATATACTTTATATGC [CACACA_site1126] | 7.58 ± 0.59
AGCTTCATATTATGGAGTACTATTAAAAATAAATAA [XGTACX_site2649] | 7.77 ± 0.28
AGATATTATAAAATATGTACATATATATATATATAT [XGTACX_site2088] | 9.22 ± 0.71
TAATTAGATTATTTTTGTACATATTATTATAGGTTA [XGTACX_site2077] | 7.59 ± 0.26
TTATCTTTTTTCGTTTGTACGTAACCATATTACTAT [XGTACX_site8853] | 7.93 ± 0.68
TTTCTATTTATTAATACATGCAAAATAAAGTAAAGT [TGCATGCA_site209] | 8.07 ± 0.8
ATATATCAATATGGAATATATATATATATATATATA [TGCATGCA_negctrl_site502] | 9.35 ± 0.67
TTTTGGTTTTGTTCTACACACATAAAAAAAAAAAAG [CACACA_site2276] | 7.89 ± 0.4
ATATATATAAATAAATGTACATAAATAATATATTAT [XGTACX_site5419] | 8.06 ± 0.72
TATATATATATATATATATTTATGTATTTATTTAAT [TGCATGCA_negctrl_site179] | 9.41 ± 0.64
TTATTTTTATATTTTAATTTTAAAAAAATTTTAATT [CACACA_negctrl_site777] | 7.34 ± 0.33
ATTATACATATTATATGTACATATATAAATAAATAA [XGTACX_site7076] | 7.79 ± 0.42
TTAATTTATTATCTTTGTACACAATTAAAAAAAAAA [XGTACX_site3469] | 7.93 ± 0.23
TTTTATTATAATAATTGTACAAAAATTATTTAATAT [XGTACX_site6054] | 7.62 ± 0.3
ATAAATATACATTATACCGACCATGTGGATATTATA [XGTACX_negctrl_site241] | 7.76 ± 0.56
AAAAAAAAAAAAAAAAGTACAAGCATTGCGTTTTAA [XGTACX_site6075] | 8.7 ± 0.58
AGAAAAAAAAAAAAAAAAATATATATATATATATAT [TGCATGCA_negctrl_site411] | 9.46 ± 0.39

Source: the supplement of paper PMC11417369
